The source of these data is paper PMC7261414, “A complex comprising C15ORF41 and Codanin-1: the products of two genes mutated in congenital dyserythropoietic anaemia type I (CDA-I)” (Biochemical Journal, 2020).

First the molecules themselves.
T1: GFP-C15ORF41 (full-length; aa1-281) from the bicistronic plasmids (human) (UniProt Q9Y2V0)
T1 sequence: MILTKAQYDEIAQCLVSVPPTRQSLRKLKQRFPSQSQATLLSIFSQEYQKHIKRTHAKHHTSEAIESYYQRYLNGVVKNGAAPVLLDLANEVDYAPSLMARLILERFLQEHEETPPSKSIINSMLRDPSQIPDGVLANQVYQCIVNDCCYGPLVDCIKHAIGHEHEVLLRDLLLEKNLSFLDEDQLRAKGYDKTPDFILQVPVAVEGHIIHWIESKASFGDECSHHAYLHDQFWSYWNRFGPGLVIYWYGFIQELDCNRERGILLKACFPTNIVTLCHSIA

B1: RFP-Codanin-1 M1-P800 (bicistronic plasmid) (domain or fragment, UniProt Q8IWY9 1-800)
chain: MAAVLESLLREEVSVAAVVRWIARSTQGSEDNAGEAAALSSLRALRKEFVPFLLNFLREQSSRVLPQGPPTPAKTPGASAALPGRPGGPPRGSRGARSQLFPPTEAQSTAAEAPLARRGGRRRGPGPARERGGRGLEEGVSGESLPGAGGRRLRGSGSPSRPSLTLSDPPNLSNLEEFPPVGSVPPGPTGTKPSRRINPTPVSEERSLSKPKTCFTSPPISCVPSSQPSALDTSPWGLGLPPGCRSLQEEREMLRKERSKQLQQSPTPTCPTPELGSPLPSRTGSLTDEPADPARVSSRQRLELVALVYSSCIAENLVPNLFLELFFVFQLLTARRMVTAKDSDPELSPAVLDSLESPLFQSIHDCVFFAVQVLECHFQVLSNLDKGTLKLLAENERLLCFSPALQGRLRAAYEGSVAKVSLVMPPSTQAVSFQPETDNRANFSSDRAFHTFKKQRDVFYEVLREWEDHHEEPGWDFEKGLGSRIRAMMGQLSAACSHSHFVRLFQKQLLQMCQSPGGAGGTVLGEAPDVLSMLGADKLGRLWRLQERLMAPQSSGGPCPPPTFPGCQGFFRDFILSASSFQFNQHLMDSLSLKIQELNGLALPQHEPNDEDGESDVDWQGERKQFAVVLLSLRLLAKFLGFVAFLPYRGPEPPPTGELQDSILALRSQVPPVLDVRTLLQRGLQARRAVLTVPWLVEFLSFADHVVPLLEYYRDIFTLLLRLHRSLVLSQESEGKMCFLNKLLLLAVLGWLFQIPTVPEDLFFLEEGPSYAFEVDTVAPEHGLDNAPVVDQQLLYTCCP
B2: RFP-Codanin-1 M1-T200 (bicistronic plasmid) (domain or fragment, UniProt Q8IWY9 1-200)
chain: MAAVLESLLREEVSVAAVVRWIARSTQGSEDNAGEAAALSSLRALRKEFVPFLLNFLREQSSRVLPQGPPTPAKTPGASAALPGRPGGPPRGSRGARSQLFPPTEAQSTAAEAPLARRGGRRRGPGPARERGGRGLEEGVSGESLPGAGGRRLRGSGSPSRPSLTLSDPPNLSNLEEFPPVGSVPPGPTGTKPSRRINPT
B3: RFP-Codanin-1 T200-S1227 (bicistronic plasmid) (domain or fragment, UniProt Q8IWY9 200-1227)
chain: TPVSEERSLSKPKTCFTSPPISCVPSSQPSALDTSPWGLGLPPGCRSLQEEREMLRKERSKQLQQSPTPTCPTPELGSPLPSRTGSLTDEPADPARVSSRQRLELVALVYSSCIAENLVPNLFLELFFVFQLLTARRMVTAKDSDPELSPAVLDSLESPLFQSIHDCVFFAVQVLECHFQVLSNLDKGTLKLLAENERLLCFSPALQGRLRAAYEGSVAKVSLVMPPSTQAVSFQPETDNRANFSSDRAFHTFKKQRDVFYEVLREWEDHHEEPGWDFEKGLGSRIRAMMGQLSAACSHSHFVRLFQKQLLQMCQSPGGAGGTVLGEAPDVLSMLGADKLGRLWRLQERLMAPQSSGGPCPPPTFPGCQGFFRDFILSASSFQFNQHLMDSLSLKIQELNGLALPQHEPNDEDGESDVDWQGERKQFAVVLLSLRLLAKFLGFVAFLPYRGPEPPPTGELQDSILALRSQVPPVLDVRTLLQRGLQARRAVLTVPWLVEFLSFADHVVPLLEYYRDIFTLLLRLHRSLVLSQESEGKMCFLNKLLLLAVLGWLFQIPTVPEDLFFLEEGPSYAFEVDTVAPEHGLDNAPVVDQQLLYTCCPYIGELRKLLASWVSGSSGRSGGFMRKITPTTTTSLGAQPSQTSQGLQAQLAQAFFHNQPPSLRRTVEFVAERIGSNCVKHIKATLVADLVRQAESLLQEQLVTQGEEGGDPAQLLEILCSQLCPHGAQALALGREFCQRKSPGAVRALLPEETPAAVLSSAENIAVGLATEKACAWLSANITALIRREVKAAVSRTLRAQGPEPAARGERRGCSRACEHHAPLPSHLISEIKDVLSLAVGPRDPDEGVSPEHLEQLLGQLGQTLRCRQFLCPPAEQHLAKCSVELASLLVADQIPILGPPAQYRLERGQARRLLHMLLSLWKEDFQGPVPLQLLLSPRNVGLLADTRPREWDLLLFLLRELVEKGLMGRMEIEACLGSLHQAQWPGDFAEELATLSNLFLAEPHLPEPQLRACELVQPNRGTVLAQS
B4: RFP-Codanin-1 M1-G600 (bicistronic plasmid) (domain or fragment, UniProt Q8IWY9 1-600)
chain: MAAVLESLLREEVSVAAVVRWIARSTQGSEDNAGEAAALSSLRALRKEFVPFLLNFLREQSSRVLPQGPPTPAKTPGASAALPGRPGGPPRGSRGARSQLFPPTEAQSTAAEAPLARRGGRRRGPGPARERGGRGLEEGVSGESLPGAGGRRLRGSGSPSRPSLTLSDPPNLSNLEEFPPVGSVPPGPTGTKPSRRINPTPVSEERSLSKPKTCFTSPPISCVPSSQPSALDTSPWGLGLPPGCRSLQEEREMLRKERSKQLQQSPTPTCPTPELGSPLPSRTGSLTDEPADPARVSSRQRLELVALVYSSCIAENLVPNLFLELFFVFQLLTARRMVTAKDSDPELSPAVLDSLESPLFQSIHDCVFFAVQVLECHFQVLSNLDKGTLKLLAENERLLCFSPALQGRLRAAYEGSVAKVSLVMPPSTQAVSFQPETDNRANFSSDRAFHTFKKQRDVFYEVLREWEDHHEEPGWDFEKGLGSRIRAMMGQLSAACSHSHFVRLFQKQLLQMCQSPGGAGGTVLGEAPDVLSMLGADKLGRLWRLQERLMAPQSSGGPCPPPTFPGCQGFFRDFILSASSFQFNQHLMDSLSLKIQELNG
B5: RFP-Codanin-1 C400-S1227 (bicistronic plasmid) (domain or fragment, UniProt Q8IWY9 400-1227)
chain: CFSPALQGRLRAAYEGSVAKVSLVMPPSTQAVSFQPETDNRANFSSDRAFHTFKKQRDVFYEVLREWEDHHEEPGWDFEKGLGSRIRAMMGQLSAACSHSHFVRLFQKQLLQMCQSPGGAGGTVLGEAPDVLSMLGADKLGRLWRLQERLMAPQSSGGPCPPPTFPGCQGFFRDFILSASSFQFNQHLMDSLSLKIQELNGLALPQHEPNDEDGESDVDWQGERKQFAVVLLSLRLLAKFLGFVAFLPYRGPEPPPTGELQDSILALRSQVPPVLDVRTLLQRGLQARRAVLTVPWLVEFLSFADHVVPLLEYYRDIFTLLLRLHRSLVLSQESEGKMCFLNKLLLLAVLGWLFQIPTVPEDLFFLEEGPSYAFEVDTVAPEHGLDNAPVVDQQLLYTCCPYIGELRKLLASWVSGSSGRSGGFMRKITPTTTTSLGAQPSQTSQGLQAQLAQAFFHNQPPSLRRTVEFVAERIGSNCVKHIKATLVADLVRQAESLLQEQLVTQGEEGGDPAQLLEILCSQLCPHGAQALALGREFCQRKSPGAVRALLPEETPAAVLSSAENIAVGLATEKACAWLSANITALIRREVKAAVSRTLRAQGPEPAARGERRGCSRACEHHAPLPSHLISEIKDVLSLAVGPRDPDEGVSPEHLEQLLGQLGQTLRCRQFLCPPAEQHLAKCSVELASLLVADQIPILGPPAQYRLERGQARRLLHMLLSLWKEDFQGPVPLQLLLSPRNVGLLADTRPREWDLLLFLLRELVEKGLMGRMEIEACLGSLHQAQWPGDFAEELATLSNLFLAEPHLPEPQLRACELVQPNRGTVLAQS
B6: RFP-Codanin-1 Q1000-S1227 (bicistronic plasmid), the C-terminal 227 residues of Codanin-1 (domain or fragment, UniProt Q8IWY9 1000-1227)
chain: QGPEPAARGERRGCSRACEHHAPLPSHLISEIKDVLSLAVGPRDPDEGVSPEHLEQLLGQLGQTLRCRQFLCPPAEQHLAKCSVELASLLVADQIPILGPPAQYRLERGQARRLLHMLLSLWKEDFQGPVPLQLLLSPRNVGLLADTRPREWDLLLFLLRELVEKGLMGRMEIEACLGSLHQAQWPGDFAEELATLSNLFLAEPHLPEPQLRACELVQPNRGTVLAQS
B7: RFP-Codanin-1 G600-S1227 (bicistronic plasmid) (domain or fragment, UniProt Q8IWY9 600-1227)
chain: GLALPQHEPNDEDGESDVDWQGERKQFAVVLLSLRLLAKFLGFVAFLPYRGPEPPPTGELQDSILALRSQVPPVLDVRTLLQRGLQARRAVLTVPWLVEFLSFADHVVPLLEYYRDIFTLLLRLHRSLVLSQESEGKMCFLNKLLLLAVLGWLFQIPTVPEDLFFLEEGPSYAFEVDTVAPEHGLDNAPVVDQQLLYTCCPYIGELRKLLASWVSGSSGRSGGFMRKITPTTTTSLGAQPSQTSQGLQAQLAQAFFHNQPPSLRRTVEFVAERIGSNCVKHIKATLVADLVRQAESLLQEQLVTQGEEGGDPAQLLEILCSQLCPHGAQALALGREFCQRKSPGAVRALLPEETPAAVLSSAENIAVGLATEKACAWLSANITALIRREVKAAVSRTLRAQGPEPAARGERRGCSRACEHHAPLPSHLISEIKDVLSLAVGPRDPDEGVSPEHLEQLLGQLGQTLRCRQFLCPPAEQHLAKCSVELASLLVADQIPILGPPAQYRLERGQARRLLHMLLSLWKEDFQGPVPLQLLLSPRNVGLLADTRPREWDLLLFLLRELVEKGLMGRMEIEACLGSLHQAQWPGDFAEELATLSNLFLAEPHLPEPQLRACELVQPNRGTVLAQS
B8: RFP-Codanin-1 P800-S1227 (bicistronic plasmid) (domain or fragment, UniProt Q8IWY9 800-1227)
chain: PYIGELRKLLASWVSGSSGRSGGFMRKITPTTTTSLGAQPSQTSQGLQAQLAQAFFHNQPPSLRRTVEFVAERIGSNCVKHIKATLVADLVRQAESLLQEQLVTQGEEGGDPAQLLEILCSQLCPHGAQALALGREFCQRKSPGAVRALLPEETPAAVLSSAENIAVGLATEKACAWLSANITALIRREVKAAVSRTLRAQGPEPAARGERRGCSRACEHHAPLPSHLISEIKDVLSLAVGPRDPDEGVSPEHLEQLLGQLGQTLRCRQFLCPPAEQHLAKCSVELASLLVADQIPILGPPAQYRLERGQARRLLHMLLSLWKEDFQGPVPLQLLLSPRNVGLLADTRPREWDLLLFLLRELVEKGLMGRMEIEACLGSLHQAQWPGDFAEELATLSNLFLAEPHLPEPQLRACELVQPNRGTVLAQS
B9: RFP-Codanin-1 M1-C400 (bicistronic plasmid) (domain or fragment, UniProt Q8IWY9 1-400)
chain: MAAVLESLLREEVSVAAVVRWIARSTQGSEDNAGEAAALSSLRALRKEFVPFLLNFLREQSSRVLPQGPPTPAKTPGASAALPGRPGGPPRGSRGARSQLFPPTEAQSTAAEAPLARRGGRRRGPGPARERGGRGLEEGVSGESLPGAGGRRLRGSGSPSRPSLTLSDPPNLSNLEEFPPVGSVPPGPTGTKPSRRINPTPVSEERSLSKPKTCFTSPPISCVPSSQPSALDTSPWGLGLPPGCRSLQEEREMLRKERSKQLQQSPTPTCPTPELGSPLPSRTGSLTDEPADPARVSSRQRLELVALVYSSCIAENLVPNLFLELFFVFQLLTARRMVTAKDSDPELSPAVLDSLESPLFQSIHDCVFFAVQVLECHFQVLSNLDKGTLKLLAENERLLC

These are yes or no findings as the source states them, for the method shown. In cells and extracts the contact can be indirect. Some entries that bind do so weakly or less than the wild type. Where a sequence is shown, tags or fusion partners need not be part of it.

The assay has as its target T1, GFP-C15ORF41 (full-length; aa1-281) from the bicistronic plasmids (human). Description: co-IP; U2OS cells transiently transfected with bicistronic vectors co-expressing GFP-C15ORF41 and full-length or truncated RFP-Codanin-1; GFP-Trap beads; two-colour western blotting.
Regarding B1, the binding entry was “no binding”.
To B2 belongs “no binding”; to B3, “binds”; to B4, “no binding”.
To B5 belongs “binds”.
On to B6, for which the binding entry was “binds”.
To B7 belongs “binds”; to B8, “binds”.
As to B9, the binding entry is reported as “no binding”.
